Measured values reported in patent US12642792B2, “CA2-IL15 fusion proteins for tunable regulation” (Obsidian Therapeutics, Inc., priority 2019, dated 2026).

Legend:
Human primary T cells = assay: In vitro antigen-independent expansion of T cells expressing constitutive or ACZ-regulated mbIL15 (cell numbers by flow cytometry); type: cell-based; settings: in 10 days; no exogenous IL15
Experimental: Human primary T cells capable of expressing constitutive mbIL15 or ACZ-regulated mbIL15 were prepared in accordance with methods described in Example 1 above.
After T cell transduction and expansion, CD3/CD28 beads were removed using magnets, cells were washed twice, resuspended in fresh media and counted. Cells were plated in 12-well plates at 1×10^6 in 2 mL. One well of untransduced cells was cultured in the presence of 2 ng/mL IL15 as a control. T cells expressing regulated constructs were cultured in the absence or presence of acetazolamide (ACZ, 30, 10, 3, 1, 0.3 μM). Cell numbers were monitored by flow cytometry every 3-4 days and cells were cultured for 10-12 days. At each time point 100 μL of cells were collected from wells and analyzed by flow cytometry. Cells were split as needed. Cell cultures were maintained in 12-well plates by taking a portion and adding media in a new plate. Volumes for each well were recorded before and after split to calculate final volume in cell number assessment. IL15 or ACZ were replenished at final concentration of the fresh media added during each split.
T cell numbers were determined by flow cytometry. Empty vector (EV) transduced cell numbers decreased to background levels between 3-5 days in the absence of IL15, and cells expanded 11-fold in the presence of 2 ng/mL exogenous IL15 (FIG. 3A). […]

[1] = system: IL15 expression on T cells; assay: IL15 expression on T cells in vivo on day 25 (flow cytometry, IL15Ra-Fc); design: species or system NSG mice; settings: constitutive constructs
Experimental: Human primary T cells capable of expressing constitutive mbIL15 or ACZ-regulated mbIL15 were prepared in accordance with methods described in Example 1 above. After T cell transduction and expansion, CD3/CD28 beads were removed using magnets, cells were washed twice, resuspended in fresh media and counted. T cells were mixed with expanded NK cells and each animal received 5×10^6 T cells and 2×10^6 expanded NK cells. Cells were infused by intravenous injections into NSG mice. Animals infused with T cells expressing regulated constructs were dosed daily with 200 mg/kg ACZ or vehicle by PO injections. Every 3-4 days, 50 μL blood was analyzed by flow cytometry for presence of T cells and NK cells using antibodies against mouse and human CD45, CD3 and CD56. IL15 expression on day 25 was analyzed using IL15Ra-Fc and fluorochrome conjugated anti-human IgG antibody.
IL15 expression on T cells in vivo on day 25 was analyzed by flow cytometry (FIG. 5C). T cells transduced with constitutive constructs IL15-292 and IL15-294 expressed high levels of IL15 (82% and 61%). IL15 expression was <1.5% in vehicle-treated IL15-293 and IL15-295 as well as EV groups. IL15 expression levels were 11% and 9% on T cells transduced with IL15-293 and IL15-295 in groups treated with ACZ.

TIL = assay: Expression of constitutive and regulated mbIL15 in TIL in response to ACZ (flow cytometry); type: cell-based, human; settings: constitutive construct
Experimental: HEK293T cells were seeded on collagen coated tissue culture plates until 70% confluent. Cells were transfected with pELNS transfer vector carrying constitutive (IL15-292) or regulated (IL15-293) IL15 constructs, as well as packaging plasmids (pRSV.REV, pMDLg/pRRE and OT-BaEVg-002 (SEQ ID NO: 51)) using Lipofectamine 3000 transfection reagent in Opti-MEM media. Media was replaced 6-8 hrs post-transfection with serum-free media. Supernatants containing virus were harvested 24 hr post-transfection, fresh media was added, and supernatants were harvested again at 48 hr post-transfection. Viral supernatants were filtered to remove debris and concentrated by low speed ultracentrifugation. Virus were resuspended, aliquoted and stored at −80 C freezer.
96-well non-coated tissue culture plates were incubated with 35 μg per mL RetroNectin (Takara Bio) in PBS for 2 h at 37° C. or overnight at 4° C. RetroNectin was removed and the plates washed with PBS. […]
mbIL15 expression was determined by flow cytometry using two staining reagents: fluorochrome-conjugated anti-IL15 antibody as well as a recombinant protein comprised of extracellular domain of IL15Ra fused to human IgG1 Fc domain (IL15Ra-Fc). mbIL15+ cell frequency was determined based on co-staining with anti-IL15 and IL15Ra-Fc (identified as the IL15+IL15Ra-Fc+ double positive population).

B1: IL15-292: constitutive membrane-bound IL15 construct (AA SEQ ID NO: 22), no DRD, in pELNS lentiviral vector (protein)
chain: MDMRVPAQLLGLLLLWLSGARC[gap - about 120 residues]GSGSGSGSGSGSGSGSGSGSGSGSGSGSGSKQEHFPDNLLPSWAITLISVNGIFVICCLTYCFAPRCRERRRNERLRRESVRPVGS
Human primary T cells
  T cell expansion, constitutive constructs: 18 -fold
[1]
  IL15 expression on T cells in vivo: 82%
TIL
  TIL expressing mbIL15 (IL15+IL15Ra-Fc+ double positive): 45.5%

B2: IL15-294: constitutive membrane-bound IL15 construct with modified B7-1 cytoplasmic tail (AA SEQ ID NO: 26) (protein)
chain: MDMRVPAQLLGLLLLWLSGARC[gap - about 120 residues]GSGSGSGSGSGSGSGSGSGSGSGSGSGSGSKQEHFPDNLLPSWAITLISVNGIFVICCLTYCFAPRCRERARNERLRRETVRPVGS
Human primary T cells
  T cell expansion, constitutive constructs: 21 -fold
[1]
  IL15 expression on T cells in vivo: 61%
